Assay results reported in the supplement of paper PMC11417369.
± gives the standard deviation of the averaged measurements. Some of the results follow.

Each sequence was assayed on PfAP2-I AP2 domain 3 (GST-tagged) (assay: gcPBM binding intensity (ln(normalized median fluorescence intensity)); higher = stronger DNA binding).
In short: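 Binding of GST-tagged P. falciparum DNA-binding domains, expressed in E. coli and used at about 25 μg on average, was carried out for 1 h in 1× PBS containing 1% milk, 0.2 mg/ml BSA, 0.5% salmon testes DNA and 0.03% Triton X-100. The target was an Agilent 4 × 180k array of primer-extended double-stranded 36-bp intergenic genomic probes plus negative controls, read with Alexa488 anti-GST antibody at 488 nm. Binding intensity is the highest Masliner-normalised natural-log median intensity across replicate spots of either probe orientation.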

| Sequence | gcPBM binding intensity (ln) |
| --- | --- |
| AAGAAAAATAATTAGGGTGAAAATATATAGAGTAAA [TGCATGCA_negctrl_site590] | 7.68 ± 0.51 |
| TATTATATAAAATATTTTATTATATCATCTTCTCTA [XGTACX_negctrl_site319] | 7.42 ± 0.59 |
| GGTAATAATATGCATAGTACATAATATATATATATA [XGTACX_site6793] | 9.29 ± 0.51 |
| ATAATATAAATAATTATACACACTTAATATATATAT [CACACA_site2782] | 8.66 ± 0.16 |
| GTATGTATGTATGTATGTACGTATTTATTTATTTAA [XGTACX_site726] | 8.77 ± 0.28 |
| TATATATATATATATACACACATATATATATTTTTC [CACACA_site3983] | 9.57 ± 0.44 |
| AATACCTATGGAATTAATAATATGTGTACAGACACA [TGCATGCA_negctrl_site547] | 7.945 ± 0.064 |
| AACAATGGATTATTCACACATAAAAAAATTCACATT [CACACA_site5437] | 7.55 ± 0.54 |
| ATCATTATATTATGGTGTACCCATATATAATTATCA [XGTACX_site551] | 7.83 ± 0.28 |
| CATTAAACCGTGGGAGCACACACACCCACCCACCCA [CACACA_site8000] | 8.49 ± 0.76 |
| AATTTAAAGAATTGTAGTACAATGAAATATATATAA [XGTACX_site7970] | 7.89 ± 0.44 |
| AAAAAAATATATATATGTACATAACTTTGTTGTGAT [XGTACX_site5243] | 7.71 ± 0.44 |
| TTTGAACATTTTGCAAGTACAAAAAAATAATATATC [XGTACX_site8079] | 7.82 ± 0.47 |
| TGTTAAATTATTTATCAGATTATTATTTGTAAATAA [CACACA_negctrl_site1535] | 7.17 ± 0.47 |
| GGAACTTAAAAAAAATGTACTTATAAAAAAGGAAAT [XGTACX_site8186] | 7.82 ± 0.6 |
| AAGAAAAGCATAGATGCACACATATATATATATATA [CACACA_site8675] | 9.485 ± 0.078 |
| AACATGCAAACATGCACACAGAAAAAAAAAATATAT [CACACA_site1565] | 8.43 ± 0.3 |
| TTACACATACATATGTGGGAAAATATTGCTACATAT [CACACA_negctrl_site463] | 7.8 ± 0.72 |
| TTTTCTACATCTTGTTGTACGAAAAATAAAAAAAAT [XGTACX_site4620] | 8.09 ± 0.28 |
| AGTACGTAAATTATAATACACACTATAGGATATTCT [CACACA_site2559] | 7.8 ± 0.69 |
| TTTTAAACAGGACACACACACATATATATATATATA [CACACA_site4664] | 9.43 ± 0.46 |
| AAAATTATATATTTTAGTACATAAAATATTGACATA [XGTACX_site2581] | 7.53 ± 0.5 |

| Sequence | gcPBM binding intensity (ln) |
| --- | --- |
| ATGTAATGTTATGTTATGTTTTTTTTTTTTTTGTGT [CACACA_negctrl_site1264] | 7.68 ± 0.27 |
| GGAATATGTATATTTTGTACGTATACATTTTTTGGG [XGTACX_site7681] | 8.07 ± 0.83 |
| GTTATTGTAAAAAGATTACACACGTTCTATATACTT [CACACA_site2473] | 7.8 ± 0.62 |
| GATATATTTTATATATGTACATACAGTGGTAAATAT [XGTACX_site1324] | 8.35 ± 0.43 |
| TTTATACAAAAAAACAAAATCAAACAAAAAAAAAAA [CACACA_negctrl_site252] | 8.11 ± 0.95 |
| TATATATGTATCATTACACACATGTATACTTATTTG [CACACA_site4138] | 7.64 ± 0.46 |
| TGTATAAATATATATACACACATATTTATATATATA [CACACA_site755] | 8.29 ± 0.66 |
| TACATTTGTATAAATAGTACGCGAAAACAAAAAAAA [XGTACX_site6246] | 8.21 ± 0.43 |
| ATATATGTGCCCATATATATATATATAAATATATGT [GTGCAC_negctrl_site226] | 7.97 ± 0.36 |
| ATTTCCCCTTTTTATTGTACATTTTTATTTGTTACT [XGTACX_site4845] | 8.2 ± 0.91 |
| TAAAAAAAAACAGAAACACACATTATTCATATATAT [CACACA_site2049] | 7.82 ± 0.45 |
| AAAATATTTATGTATGCATGTTGTAATATTTCTTTA [TGCATGCA_site296] | 7.96 ± 0.65 |
| TATGCTATATATTTAGTGCATATATATAACTTTTAT [GTGCAC_site9902] | 10.1 ± 0.36 |
| TATTAGCATGTTATTACACACAATATAAGATATATA [CACACA_site6775] | 7.69 ± 0.52 |
| AATATATATTTATAAACACACACCAAAATTTGTGCT [CACACA_site3091] | 7.8 ± 0.5 |
| ACATTTTGTGTTTTAGCACACAATTTTTCAGAATAT [CACACA_site2961] | 8.38 ± 0.4 |
| ATATTATAATATTTATGTACATATATATAATATATA [XGTACX_site1633] | 7.7 ± 0.29 |
| ATATGTAGTTTTTACCTAATAAAAAAAAAAAAAAAA [CACACA_negctrl_site672] | 8.09 ± 0.79 |
| TTGTATTTACACGATCAACCAAATGGTATATAAATA [GTGCAC_negctrl_site167] | 7.82 ± 0.29 |
| TAAACATATAAAAAGGGTACACATTAAACATAGTAT [XGTACX_site7096] | 7.99 ± 0.67 |
| AAATCATTCCTTTATTCACACAATATCTGTATTTAT [CACACA_site4407] | 7.91 ± 0.72 |
| ATAGCTAAGATAGCTTGTACATATATTTACATATAT [XGTACX_site3694] | 7.3 ± 0.45 |
